# Source: PubChem BioAssay (NCI)
# Where “and” joins values, the source holds several entries; their conditions need not be identical. Equal values may be shown once.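 Exposure lasted 48 hours, with cells grown in 96-well plates and compounds tested at five concentrations. The concentration for 50% growth inhibition is given as GI50. Definition used: TGI = concentration required for complete inhibition of growth.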
# System: NCI-H322M lung
# Experiment: DTP human tumour cell line panel, 48 h
SMILES,TGI,GI50
Nc1ccc(C(=O)O)c2[nH]c3ccccc3c(=O)c12,> 100 µM,–
COc1cc(O)c2c(=O)cc(C3(OC(C)=O)C=CC(OC4OC(CO)C(O)C(O)C4O)C=C3)oc2c1 (stereo not given),> 100 µM,–
NCCCNCCCNc1nc2ccccc2c2[nH]c3ccccc3c12,2.64 µM,0.323 µM
Cc1cc(N(CCC#N)CCC#N)ccc1N=Nc1ccc([N+](=O)[O-])cc1,> 100 µM,–
CCC/C(Cl)=N/OC(=O)Nc1cccc(F)c1,32.2 µM,–
Cc1ccc2c(c1)C(=O)c1ccc(C)nc1C2=O,95.4 µM,–
CCCCCCCCCCCCCCCc1ccc(C(=O)C[n+]2ccccc2)cc1,3.93 µM,1.07 µM
CCOC(=O)/C(=C/c1c(-c2ccccc2)[nH]c2ccccc12)C(=O)c1ccc(Cl)cc1,> 100 µM,98.4 µM
Cc1oc2nc(N(C)C)n3c(C)nnc3c2c1C,> 100 µM,–
CC(=O)NC1C(OCc2ccccc2)OC(CO)C(O)C1OC(C)C(=O)NC(C(=O)NC(CCC(=O)Nc1ccc2c(c1)CN1C(=O)c3ccccc3C1=N2)C(N)=O)C(C)C (stereo not given),> 100 µM,–
O=[N+]([O-])c1ccc([I+]c2ccccc2)cc1,20.6 µM,–
CC1OC(OC2C(OC3CCC4(C)C(CCC5(C)C4CC=C4C6CC(C)(C)CCC6(CO)C(O)CC45C)C3(C)C)OC(C(=O)O)C(OC3OC(COC4OC(CO)C(O)C(O)C4O)C(O)C(O)C3O)C2O)C(O)C(O)C1O (stereo not given),20.3 µM,10.5 µM
Clc1ccc(C2=NN(c3ccccc3)C3c4cc(Br)ccc4OCC23)cc1 (stereo not given),> 100 µM,–
CCOP(=O)(OCC)OC1CC(n2cnc3c(N(CC)CC)ncnc32)OC1CO[Si](C)(C)C(C)(C)C (stereo not given),32.4 µM,–
Cn1cccc1C1CC(=O)N(CCC[Se]C#N)C1=O (stereo not given),5.34 µM,1.77 µM
Cn1cc(-c2csc(-c3cn(C)c4ncccc34)n2)c2ccccc21,> 100 µM,0.86 µM
CC(=O)Nc1ccccc1S(=O)(=O)c1c(-c2c(C)c(Cl)c(C)c(Cl)c2C)noc1C,> 100 µM,–
COC(=O)C12C3C=CC(O3)C1C1C=CC2O1 (stereo not given),> 100 µM,–
COc1ccc(Br)c(CCCCC(=O)O)c1,> 100 µM,–
O=C(N/N=C1\CCc2ccccc21)N/N=C1\CCc2ccccc21,> 100 µM,–
CCCN=C1S/C(=C/c2ccc(OC)c(OC)c2)C(=O)N1c1ccccc1,> 100 µM,–
COc1cccc2c(=O)c3c(O)c4cc(N(C)C)ccc4c(OC(C)=O)c3oc12,> 100 µM,–
CC1(C)CCC(CN2CCN(c3ccc(C(=O)NS(=O)(=O)c4ccc(NCC5CCOCC5)c([N+](=O)[O-])c4)c(Oc4cnc5[nH]ccc5c4)c3)CC2)=C(c2ccc(Cl)cc2)C1,9.77 µM,2.92 µM

SMILES,TGI,GI50
COC(=O)/C=C1/OC(c2ccccc2)=CC1=O,> 100 µM,–
COC(=O)CC(CC(=O)C(=O)OC)C(=O)OC (stereo not given),> 100 µM,–
C#CCSc1nnnn1-c1ccc(Br)c(C)c1,> 100 µM,79.5 µM
COC12c3ccccc3-c3ccccc3C1[C@@H](C(=O)O)[C@H]2C(=O)O (stereo not given in full),> 10 µM,–
COC(=O)C(NC(=O)C12CCC(C)(C(=O)O1)C2(C)C)c1cc(C(C)(C)C)c(O)c(C(C)(C)C)c1 (stereo not given),> 100 µM,–
COc1cc2c(c(Br)c1N)-c1cc(Br)c(N)cc1C2=O,> 100 µM,> 100 µM
O=[N+]([O-])c1ccc2nc(/C=C(\O)c3ccccc3)c(/C=C(\O)c3ccc(Cl)cc3)nc2c1,> 100 µM,–
CN(C)CC1CCCC(CN(C)C)C1=O (stereo not given),39 µM and > 78.7 µM,23.9 µM and > 48 µM
COc1cc(-c2c(C(C)=O)c(-c3ccccc3)n(C3OC(COC(C)=O)C(OC(C)=O)C(OC(C)=O)C3OC(C)=O)c(=S)c2C#N)ccc1O (stereo not given),> 100 µM,–
CCN1N=CSC12C(=O)N(c1ccccc1)C(=O)N2c1ccccc1 (stereo not given),> 100 µM,–
CCCNc1c(Cl)cc(Cl)c2[nH]c3ccccc3c(=O)c12,> 100 µM,–
O=C1C2=Cc3ccccc3CCN2c2ccc([N+](=O)[O-])cc21,> 100 µM,–
COC(=O)/C=C(\S/C(=C(/c1ccccc1)n1cc(C(=O)OC)c(C(=O)OC)n1)c1ccccc1)C(=O)OC,35.2 µM,–
N#CCCN(CCC#N)c1ccc(/C=C2\N=C(c3ccccc3)N(NC(=O)c3ccncc3)C2=O)cc1,> 100 µM,–
C/C(=N\NC(=S)Nc1ccccc1)c1ccccn1,5.94 µM,0.0799 µM
C/C=C(\C)C(=O)O[C@@H]1C=CC(=O)O[C@H]1COC(=O)[C@H](C)O,47.5 µM,23.8 µM
CC(=O)N(CCc1ccccc1)C(C)(C#N)c1ccccc1 (stereo not given),> 100 µM,–
NC(=O)OCc1c(O)c2c(c(O)c1COC(N)=O)C(=O)C=CC2=O,> 100 µM,–
CCOC(=O)CC(=O)Nc1c(C(=O)OCC)sc2nc(SC)nc(Nc3ccc(OC)c(OC)c3)c12,> 100 µM,–
O=C(O)Cc1ccccc1,> 2000 µM,> 1000 µM
COc1ccc2c(c1)C(=O)/C(=C/c1ccc(OCC(=O)c3ccc(Cl)cc3)cc1)O2,> 100 µM,> 100 µM
COc1ccc(N=C/C=C/C(=C/COC(C)=O)OC(C)=O)cc1,> 100 µM,–
CCOC(=O)c1c(C)n(-c2ccc(C)cc2)c2c1cc(O)c1[nH]c3c(c12)CCCC3,81.2 µM,–
